Screen size: about 360,000 compounds; about 7,500 (2.1%) were called active. Inconclusive results, whose numbers are uncertain, are shown with a selection of clear calls. Calls come from the whole dose curve; as a rule, active = well fitted cell-killing curve with a large enough effect; inconclusive = small, poorly fitted or top-dose-only effect, or effect the other way, or another doubt; inactive = no such curve, though single readings can be large or run the other way. No potency is given beside an inconclusive call; the fits are too rough.
Experiment: qHTS for induction of synthetic lethality in tumor cells producing 2HG: qHTS for the HT-1080-IDH1KD cell line;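 for activity, negative = toxicity: 0% = DMSO wells and -100% = cell-free medium wells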
Details: HT-1080 IDH1 knockdown viability, ATP luminescence, 48 h; activity, negative = toxicity: at 46.1 µM (top of the series) unless noted
Method in brief: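 IDH1KD HT-1080 cells, 750/well, RPMI + 5% FBS; compound pinned after 2 h settling; 48 h, 37 °C; CellTiter-Glo luminescence; % activity normalised to DMSO and no-cell wells; curves fitted, classed by r2 and efficacy.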
Potency is the fitted concentration of half-maximal effect; tags give direction and shape of the fitted curve.

SMILES	Potency	activity, negative = toxicity
C/C(=N/NC(=O)c1cc(-c2ccccc2)nc2c(Cl)cccc12)c1cccnc1	inconclusive [cytotoxic, single point]	–
COC(=O)[C@@]12CCCCN1[C@H](c1ccc(-c3ccccc3)c(OC)c1)[C@H]1C(=O)N(C)C(=O)[C@H]12	–	inactive: 7.5%
CC(C)N1CCC(N2CCN(CCCc3ccccc3)CC2CCO)CC1 (stereo unspecified)	inconclusive [cytotoxic, partial curve]	–
Oc1ccccc1N=Cc1c(O)ccc2ccccc12	active: 18.4 µM	–
CN(Cc1ccc(Cl)cc1)C(=O)CCl	active: 16.4 µM	–
Cc1cccc(C(=O)NCC(=O)N2CC=C(c3ccccc3)CC2)c1	inconclusive [cytotoxic, partial curve]	–
O=C(O)C1CC(O)CN1C(=O)c1ccco1 (stereo unspecified)	–	inactive: 2.97%
N#Cc1ccc(C(c2nnnn2CCc2ccccc2)N2CCCCCC2)cc1 (stereo unspecified)	inconclusive [cytotoxic, single point]	–
O=C(Cc1cccs1)NCCc1csc(-c2ccccc2)n1	–	inactive: 0.951%
CC(=O)Nc1ccc(-c2ccnc3c2CC(C)(C(=O)NCc2cccc(Cl)c2)O3)cc1 (stereo unspecified)	inconclusive [cytotoxic, single point]	–
COc1ccc(C(=O)/C=C/c2ccc(OCc3ccccc3)cc2)cc1CSCC(=O)O	inconclusive [cytotoxic, single point]	–
CN(C(=O)c1ccco1)c1nc2c(s1)CCCC2	inconclusive [cytotoxic, single point]	–
CCc1nc2ccc(C(=O)Nc3cc(-c4ccccc4)ccc3OC)cn2c1N(CC)Cc1cccc(Br)c1	inconclusive [cytotoxic, single point]	–
COc1ccc(Nc2nc3cc(-c4ccccc4C)sc3c(=O)n2C)cc1OC	inconclusive [cytotoxic, partial curve]	–
Cc1cc([N+](=O)[O-])ccc1-c1ccc(C2Nc3ccccc3C(=O)N2O)o1 (stereo unspecified)	active: 7.08 µM	–
COc1ccc(CCNC(=O)c2cc(-c3cc(C)cc(C)c3O)n[nH]2)cc1OC	inconclusive [cytotoxic, single point]	–
CCN(CC)CCN(Cc1cc2cc3c(cc2[nH]c1=O)OCCO3)C(=S)NCC(C)C	inconclusive [cytotoxic, single point]	–
COc1ccc(C2CC(c3ccccc3)=NN2C(=O)c2cccs2)cc1 (stereo unspecified)	inconclusive [cytotoxic, single point]	–
O=C1CCC(c2ccccc2)c2ccccc21 (stereo unspecified)	–	inactive: 1.99%
COc1ccc(C2=Nc3ccccc3N(C(=O)c3ccncc3)C2C(=O)NC(C)C)cc1 (stereo unspecified)	–	inactive: 8.51%
CC(C)C[C@@H](C(=O)NC1CCN(Cc2ccccc2)CC1)N1C(=O)N2CCc3c([nH]c4ccccc34)[C@@]2(C)C1=O	inconclusive [cytotoxic, single point]	–
CC(=O)NCCCN(Cc1ccc(Cl)c(Cl)c1)c1ccc(Br)cn1	inconclusive [cytotoxic, single point]	–
CCN(CC)c1ccc(/C=C2\SC(=O)N(C(C)C)C2=O)o1	active: 7.31 µM	–
CCN(CC)CCn1c2ccccc2c2cnc(N=CN(C)C)c(C#N)c21	inconclusive [cytotoxic, single point]	–

SMILES	Potency	activity, negative = toxicity
CCCCN(C=O)c1c(CC)nc2c(OCc3ccc(Cl)cc3Cl)cccn12	inconclusive [cytotoxic, single point]	–
COc1ccc(C(=O)/C=C2\NCCc3cc(OC)c(OC)cc32)cc1OC	inconclusive [cytotoxic, partial curve, poor fit]	–
CCc1ccc(C(=O)COC(=O)c2cc([N+](=O)[O-])ccc2N2CCOCC2)cc1	active: 8.2 µM	–
Cc1cccc(OCc2nc(C#N)c(NCc3ccc4c(c3)OCO4)o2)c1	inconclusive [cytotoxic, single point]	–
CCN(C(=O)COC(=O)c1nc2nc(C)cc(C)n2n1)C1CCS(=O)(=O)C1 (stereo unspecified)	–	inactive: 1.02%
CN(C)CCNC(=O)C1Cc2c(-c3ccccc3Oc3ccccc3)ccnc2O1 (stereo unspecified)	active: 23.1 µM	–
COc1ccc(CCNc2oc(-c3ccc(C)cc3)nc2C#N)cc1OC	–	inactive: 5.48%
CC[n+]1c(/C=C/C=C/N(C(C)=O)c2ccccc2)sc2cc(OC)ccc21	inconclusive [cytotoxic, single point]	–
FC(F)Sc1ccc(N=C2NN=C(c3ccc4c(c3)OCCO4)CS2)cc1	inconclusive [cytotoxic, single point]	–
Cc1cc(C)c2c(N)c(C(=O)Nc3cccc(C)c3C)sc2n1	inconclusive [cytotoxic, full curve]	–
CCC(=O)NC(=S)Nc1cc(C(=O)O)ccc1OC	–	inactive: 4.39%
O=C(Nc1ccccn1)c1cc(-c2cccnc2)nc2ccc(Br)cc12	inconclusive [cytotoxic, single point]	–
COCCN(C(=O)COC(=O)/C=C/c1ccc2c(c1)OCO2)c1c(N)n(Cc2ccccc2)c(=O)[nH]c1=O	–	inactive: 5.91%
CCOc1ccc(/C=N/Nc2ccccc2)cc1	inconclusive [cytotoxic, partial curve]	–
C=C1C(=O)C=C[C@]2(C)C[C@@H]3OC(=O)[C@](C)(O)[C@H]3C[C@@H]12	inconclusive [cytotoxic, partial curve]	–
Cc1ccc(OCC(=O)Nc2ccccc2F)cc1C	–	inactive: -4%
CN1CCN(c2oc(COc3ccc(-c4ccccc4)cc3)nc2C#N)CC1	inconclusive [cytotoxic, single point]	–
CCC(C)Nc1nc(-c2cccc(OC)c2O)nc2ccccc12 (stereo unspecified)	inconclusive [cytotoxic, single point]	–
Cn1c(SCC(=O)Nc2nccs2)nnc1C12CC3CC(CC(C3)C1)C2	inconclusive [cytotoxic, single point]	–
COc1cc(/C=N/O)ccc1OCc1ccc(C(=O)O)cc1	inconclusive [cytotoxic, partial curve]	–
CCOc1ccc(C(=O)N2CCc3cc(OC)c(OC)cc3C2)cc1OCC	inconclusive [cytotoxic, single point]	–
CCOc1cc(/C=N/Nc2nnc(C)n2N)ccc1O	active: 23.1 µM	–
COc1ccccc1-c1cc(-c2ccc(O)cc2)nc(N)c1C#N	–	inactive: -2.9%
O=C(O/N=C\c1ccc(N2CCCCC2)c([N+](=O)[O-])c1)c1c(F)cccc1F	–	inactive: -13.9%

SMILES	Potency	activity, negative = toxicity
CC(C)n1ncc2c(C(=O)N3CCN(c4ccccc4)CC3)cc(-c3ccccc3)nc21	inconclusive [cytotoxic, single point]	–
COc1cc(OC)nc(Nc2nc(C(N)CCc3ccccc3)cs2)n1 (stereo unspecified)	inconclusive [cytotoxic, single point]	–
Cc1cccn2c(=O)c(/C=C(\C#N)C(=O)NCc3ccco3)c(N3CCCCC3)nc12	–	inactive: 0.896%
Cc1ccc(C(=O)N(C)CC(=O)Nc2ccc(Cl)c(C(F)(F)F)c2)cc1S(=O)(=O)N1CCCCC1	inconclusive [cytotoxic, single point]	–
CC(C)Oc1cccc(C(=O)C2CCCN(Cc3cnn(C(C)C)c3)C2)c1 (stereo unspecified)	inconclusive [cytotoxic, single point]	–
O=C(/C=C/c1ccc2c(c1)OCCCO2)c1ccccc1O	inconclusive [cytotoxic, single point]	–
CCOc1ccc(S(=O)(=O)N2CCCCC2)cc1NC(=O)c1c(CC)noc1C	–	inactive: 6.33%
CN(C)c1ccc(C=Nc2ccccc2C(N)=O)cc1	inconclusive [cytotoxic, single point]	–
CCOC(=O)C[n+]1c(C)sc2ccc(OC)cc21	inconclusive [cytotoxic, single point]	–
NNC(=O)c1cnn(-c2ccccc2)c1-n1cccc1	inconclusive [cytotoxic, single point]	–
COc1ccc(NC(=O)c2oc3ccccc3c2NC(=O)c2ccco2)cc1	inconclusive [cytotoxic, single point]	–
Clc1ccccc1C(c1nnnn1Cc1ccco1)N1CCN(Cc2ccco2)CC1 (stereo unspecified)	–	inactive: -0.221%
Cc1cccc(NC(=O)N2C3CCCC2CC(NC(=O)C2CC2)C3)c1 (stereo unspecified)	–	inactive: -1.27%
CC(C)(C)Nc1nc(C(N)=O)nc(N2CCOCC2)n1	–	inactive: -7.62%
S=c1[nH]nc(CSCc2ccccc2Cl)n1-c1ccccc1	inconclusive [cytotoxic, single point]	–
COc1ccccc1N(CN1C(=O)c2ccccc2C1=O)C(=O)c1cccc(C)c1	–	inactive: 13.9%
COc1ccc(NC(=O)C2CCCN2C(=O)NC2CCCCC2)c(OC)c1 (stereo unspecified)	inconclusive [cytotoxic, single point]	–
CCOc1ccc(Nc2c3ccccc3nc3ccccc23)cc1	active: 11.6 µM	–
Cc1cccc(-c2cnc(C(O)c3ccc(-c4ccccc4)cc3)[nH]2)c1 (stereo unspecified)	inconclusive [cytotoxic, single point]	–
O=C(NNC(=S)Nc1ccc(F)c(Cl)c1)c1ccccc1Br	inconclusive [cytotoxic, single point]	–
CNC(=O)/C=C1\NC(C)(C)Cc2ccccc21	inconclusive [cytotoxic, single point]	–
CCCNC(=O)C1(C)CCN1C(=O)Cc1ccc(-c2ccccc2)cc1 (stereo unspecified)	inconclusive [cytotoxic, single point]	–
Cc1ccc(S(=O)(=O)NCc2ccccc2)cc1C(=O)N1CCN(c2ccccc2)CC1	–	inactive: 0.899%
